# In PubChem BioAssay AID1458 (National Center for Advancing Translational Sciences (NCATS), 2008):
# The campaign covered roughly 210,000 compounds. About 5,900 (2.8%) were called active. The shares of active, inactive and inconclusive entries below differ from those in the screen. The call rests on the fitted dose curve; in most records, active means well fitted activation curve with a large enough effect; inconclusive means small, poorly fitted or top-dose-only effect; inactive means no such curve, though single readings can be large or run the other way. Where the call is inconclusive, the potency comes from a doubtful curve fit.
# Assay: qHTS Assay for Enhancers of SMN2 Splice Variant Expression; further: nearly all actives have a fitted effect of over 55% in size; on activity change, positive = activation: % of control where 0% means no effect
# Details: HEK293 SMN2-luciferase splicing reporter, luminescence, 30-36 h; activity change, positive = activation: at 46.1 µM (top of the series)
# Outline: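 HEK293 cells carry an SMN2 […]–luciferase reporter in which exon 7 inclusion puts luciferase in frame. Cells were plated 10-12 h before compound addition, then incubated 30-36 h at 37C. ONE-Glo luminescence was read; sodium butyrate at 4.5 mM final served as control.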
# Potency means the concentration at half of the fitted maximal effect; tags describe the fitted curve by direction and shape.
SMILES,Potency,"activity change, positive = activation"
Cn1nccc1/C=C(/C#N)S(=O)(=O)c1ccccc1,"inconclusive: 5.01 µM [activator, single point]",–
N#Cc1cccc(CS(=O)(=O)c2nc3ccccc3s2)c1,–,inactive: 0.973%
CCCCCCn1cnc2c(oc3nc4c(cc32)CCCC4)c1=O,active: 11.2 µM,–
O=C(NCc1ccccn1)c1ccc(NC(=O)c2ccco2)cc1,"inconclusive: 0.0032 µM [activator, full curve, poor fit]",–
CCC(CC)C(=O)Nc1cccc(C(=O)Nc2ccc3c(c2)OCO3)c1,active: 8.91 µM,–
COc1cccc(-c2cc(C(=O)N3CCCc4ccccc43)no2)c1,"inconclusive: 10 µM [activator, partial curve, poor fit]",–
CCOC(=O)c1c(C)[nH]c(C(=O)COC(=O)C2CC2C)c1C (stereo unspecified),"inconclusive: 11.2 µM [activator, partial curve, poor fit]",–
Cc1cccc(C(=O)O/N=C2\CCSc3ccc(C)cc32)c1,–,inactive: -10.3%
CC(C)[C@]1(Cl)CC[C@@H]2[C@]3(C)CCC[C@@](C)(C(=O)O)[C@H]3C[C@H](Cl)[C@@]2(Cl)[C@H]1Cl,–,inactive: -6.38% [at 9.22 µM]
O=C(NCc1ccco1)c1sc2cc(Cl)ccc2c1Cl,"inconclusive: 11.2 µM [activator, partial curve, poor fit]",–
COc1cc2oc(=O)c3c4c(cc5ccc(c1CCN(C)C)c2c53)OCO4,–,inactive: 10.7%
CC(=O)Nc1nc(-c2ccc3c(c2)CCO3)cs1,"inconclusive: 20 µM [activator, partial curve, poor fit]",–
Cc1ccc2oc(-c3ccco3)cc(=O)c2c1,"inconclusive: 10 µM [activator, partial curve]",–
CCCCCCCCC(=O)NCCOc1ccc(OC)cc1,–,inactive: -0.548%
O=C(CN1C(=O)c2ccccc2C1=O)N1CCN(c2ccccc2)CC1,"inconclusive: 8.91 µM [activator, partial curve, poor fit]",–
Cc1sc2c(c1C)CN(C(C)(C)C)CN2C(=O)c1ccccc1,"inconclusive: 20 µM [activator, partial curve]",–
O=C(/C=C/NNC(=O)c1cccc(Br)c1)c1cccc(Br)c1,"inconclusive: 11.2 µM [activator, partial curve, poor fit]",–
CS(=O)(=O)c1ccc(CNC(=O)[C@H]2C[C@@H]2[C@H](NP(=O)(c2ccccc2)c2ccccc2)c2ccccc2)cc1,–,inactive: -1.44%
C/C(=N\NC(=O)c1nc2ccccn2c1C)c1ccco1,–,inactive: 263%
O=C(/C=C/c1ccco1)Nc1cccc2cccnc12,"inconclusive: 14.1 µM [activator, partial curve]",–
COc1cc2[nH]c3c(N4CCN(c5ccccn5)CC4)ncnc3c2cc1OC,–,inactive: -39.4%
CCc1nnc(NC(=O)CSc2nnc(Cc3ccccc3)o2)s1,"inconclusive: 0.0178 µM [activator, full curve, poor fit]",–
CC1CCCC(C)N1C(=O)CSc1nnc(-c2cccs2)o1 (stereo unspecified),active: 11.2 µM,–

SMILES,Potency,"activity change, positive = activation"
CC(C)c1nnc(N2C(=O)C(O)=C(C(=O)c3cccs3)C2c2ccccc2)s1 (stereo unspecified),"inconclusive: 12.6 µM [activator, single point]",–
O=C(N/N=C1\CCCCc2ccccc21)c1ccccn1,"inconclusive: 35.5 µM [activator, single point]",–
Nc1cc(N)cc(-c2nc3ccccc3[nH]2)c1,"inconclusive: 35.5 µM [activator, single point]",–
CCC1(C)Cc2c(c(=O)n(-c3ccccc3)c3ncnc(N)c23)CO1 (stereo unspecified),"inconclusive: 0.0355 µM [activator, full curve, poor fit]",–
O=[N+]([O-])c1ccc(COc2ccccc2/C=N/O)cc1,active: 15.8 µM,–
C[C@H]1CC2[C@@H]3CCC4=CC(=O)C=C[C@]4(C)[C@@]3(Cl)[C@@H](O)C[C@]2(C)[C@@]1(O)C(=O)CO (stereo partly specified),–,inactive: 3.81%
Cc1ccccc1CSc1nncn1N,"inconclusive: 12.6 µM [activator, partial curve, poor fit]",–
CC(C)(C)C1CCc2onc(C(=O)Nc3sc4c(c3C#N)CCCC4)c2C1 (stereo unspecified),–,inactive: 8.86%
Cn1c(=O)n(C)c2cc(S(=O)(=O)Nc3ccccc3O)ccc21,"inconclusive: 12.6 µM [activator, partial curve]",–
CC(C)OCC(O)CN1CCNCC1 (stereo unspecified),"inconclusive: 5.62 µM [activator, single point]",–
O=C(NCc1ccc(F)cc1)C(=O)Nc1ccc2nc3n(c(=O)c2c1)CCCCC3,–,inactive: -6%
CCOc1cc(C(=O)Nc2nnc(C)s2)cc(OCC)c1OCC,"inconclusive: 5.62 µM [activator, single point]",–
COc1cccc(NC(=O)CCN2C(=O)c3ccccc3S2(=O)=O)c1,"inconclusive: 35.5 µM [activator, partial curve]",–
C=CCNc1nc(-c2ccc(Cl)cc2)cs1,active: 25.1 µM,–
COc1ccccc1-c1cc(C(=O)Nc2cc(C)on2)no1,"inconclusive: 15.8 µM [activator, single point]",–
CC1CCC(NC(=O)C2(C)Cc3ccccc3C(=O)N2Cc2ccc(Cl)cc2)CC1 (stereo unspecified),–,inactive: -7%
CCOC(=O)c1c(C)oc2c1c1c(c3ccccc32)OCN(Cc2ccccn2)C1,"inconclusive: 35.5 µM [activator, single point]",–
COc1ccc(OC(=O)c2cc3ccccc3o2)cc1,–,inactive: 29.1%
CCOC(=O)C(NC(=O)CC)(Nc1cc(C)on1)C(F)(F)F (stereo unspecified),"inconclusive: 0.224 µM [activator, full curve]",–
CCc1nnc(NC(=O)CSc2ccc(-c3ccc(F)cc3)nn2)s1,"inconclusive: 7.94 µM [activator, partial curve]",–
Cc1cc(/C=N/NC(=O)c2cccs2)c(C)n1-c1ccccc1,"inconclusive: 25.1 µM [activator, single point]",–
O=C(COc1ccccc1)Nc1cccc(-c2nc3ccccc3[nH]2)c1,"inconclusive: 14.1 µM [activator, partial curve]",–
Cn1nnnc1Sc1ncnc2scc(-c3ccccc3)c12,"inconclusive: 5.62 µM [activator, single point]",–
